Over roughly 33,000 sequences, “E-score (-0.5 to 0.5)” has its median near -0.012; the highest 2% begin near 0.27. Some of the results follow.
biological target: T1, Vhr1 (UniProt P40522); assay: PBM E-score (8-mer binding enrichment) (E-score (-0.5 to 0.5)); higher = stronger / more preferred TF binding; most listed sequences are background and not binding sites; settings: protein concentration: 200 nM; construct: GST-full length
T1 sequence: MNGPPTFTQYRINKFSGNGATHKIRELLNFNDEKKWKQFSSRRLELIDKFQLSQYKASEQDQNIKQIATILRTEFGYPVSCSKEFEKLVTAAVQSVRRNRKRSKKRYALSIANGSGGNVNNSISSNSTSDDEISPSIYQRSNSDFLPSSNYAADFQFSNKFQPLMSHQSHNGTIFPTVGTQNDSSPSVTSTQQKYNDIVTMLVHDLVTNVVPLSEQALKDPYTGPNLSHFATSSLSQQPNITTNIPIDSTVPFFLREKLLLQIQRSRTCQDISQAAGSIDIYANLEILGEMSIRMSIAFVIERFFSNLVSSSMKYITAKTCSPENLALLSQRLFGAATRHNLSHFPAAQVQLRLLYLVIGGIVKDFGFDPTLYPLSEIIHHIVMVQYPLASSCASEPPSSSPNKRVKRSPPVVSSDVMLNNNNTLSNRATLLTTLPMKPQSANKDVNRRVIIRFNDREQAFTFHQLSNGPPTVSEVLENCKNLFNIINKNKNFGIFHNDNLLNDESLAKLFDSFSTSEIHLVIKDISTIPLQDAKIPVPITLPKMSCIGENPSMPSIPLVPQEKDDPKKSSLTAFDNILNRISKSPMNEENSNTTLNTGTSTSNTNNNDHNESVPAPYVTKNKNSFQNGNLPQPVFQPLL
In short: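 Detection of bound protein used fluorescent anti-GST, with scans normalised by masliner. The proteins were GST-tagged yeast transcription factors applied at about 100-200 nM to universal all-10-mer Agilent arrays made double-stranded by primer extension. Each ungapped eight-base word, pooled with its reverse complement, was scored with an E-score from the Universal PBM Analysis Suite.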

| Sequence | PBM E-score |
| --- | --- |
| AAAAGGCT | -0.159 |
| ACTAGGTA | 0.113 |
| CCGACATA | 0.026 |
| TGACTAAA | 0.326 |
| CTAAATAC | 0.123 |
| CTTGATGA | 0.128 |
| CAGCCACG | 0.124 |
| ACAAGGCA | -0.0614 |
| ACTACCTG | 0.153 |
| GAGTGGCA | 0.0236 |
| AGTCTCAA | 0.0459 |
| GTACACAC | 0.261 |
| AGAAATCC | -0.269 |
| AGGGATTA | -0.0221 |
| AATCCGTC | -0.00624 |
| CGAAGAAG | -0.123 |
| ACCCAAGC | -0.0655 |
| GAACGGGA | -0.0922 |
| CCTGAGCA | -0.0163 |
| ACTACCAC | 0.175 |
| CCTTGGAA | -0.115 |
| GTGGCGGA | 0.0432 |

| Sequence | PBM E-score |
| --- | --- |
| AGGATACA | -0.0569 |
| AAACTCTT | -0.163 |
| GACAAGGA | -0.105 |
| CTAGTGCC | -0.21 |
| AAGACATT | -0.164 |
| GATCGGTA | 0.15 |
| ACGATCTG | -0.125 |
| AGCAGGGC | -0.00534 |
| GCACCGCC | 0.183 |
| GCATGAAA | 0.0196 |
| CGCCCTGA | 0.106 |
| CTGGTATC | 0.0298 |
| GAGCTCCA | -0.103 |
| ATAATTAA | 0.207 |
| AGCATCAC | 0.0243 |
| ACAAGTGT | -0.161 |
| ACATGGAG | 0.119 |
| CTCAGGAC | 0.0961 |
| AACTACAT | 0.0803 |
| ACTTCTAT | -0.0176 |
| CCTCCAGG | -0.112 |
| CACAAACC | -0.135 |

| Sequence | PBM E-score |
| --- | --- |
| ATGCACGA | 0.0181 |
| GCCAAAAA | -0.0978 |
| ATAAACAC | 0.0527 |
| CGCCGATC | -0.0351 |
| TGGGACAA | -0.0041 |
| ACGAACAG | -0.0287 |
| ACATTCCT | -0.0361 |
| CATCTCTA | -0.00287 |
| AAGAACCG | 0.0666 |
| GACCGCAA | 0.141 |
| GCGGTTCA | 0.14 |
| GCAACCTA | 0.0732 |
| CCCCCAAG | -0.103 |
| AGCCGAAC | -0.0851 |
| CCAGCACG | -0.127 |
| GGCCTTGA | -0.117 |
| TCTTTCAA | -0.187 |
| CTTTGACC | -0.0122 |
| ACGTACCA | -0.0801 |
| AATCTCTC | -0.0867 |
| GCATCGGA | -0.0197 |
| CGGATTCA | 0.0469 |

| Sequence | PBM E-score |
| --- | --- |
| GCTGAGGA | -0.274 |
| ACGGTTAG | -0.104 |
| TAACAGCA | 0.0822 |
| AGGAATGC | 0.00488 |
| AATCCGAG | 0.117 |
| AACAGCAC | 0.108 |
| ATAGCAGC | -0.207 |
| AAATAAGT | -0.188 |
| ACCCTAGC | -0.0939 |
| ATACATAC | 0.293 |
| GTAGTGGA | -0.0367 |
| ACCACTCG | 0.149 |
| CCCTCCTC | 0.028 |
| AGTCTTTG | -0.141 |
| CCCAGTGC | 0.117 |
| GATCGAAC | -0.132 |
| CAAGTTTA | -0.0781 |
| GCGGTTAC | 0.057 |
| GTTTAGTA | -0.165 |
| AAGCTCTG | -0.235 |

From the supplement of paper PMC3334620
